From PubChem BioAssay (NCI)
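48-hour exposure; five concentrations; linearly interpolated endpoints. TGI is the concentration that stops growth completely.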

Key:
Assay in all cases: NCI-60 cell line screen, 48 h
[1] = tested on: 786-0 renal
[2] = tested on: A498 renal
[3] = tested on: A549 NSCLC
[4] = tested on: ACHN renal
[5] = tested on: CAKI-1 renal
[6] = tested on: CCRF-CEM leukemia
[7] = tested on: COLO 205 colon
[8] = tested on: DU-145 prostate
[9] = tested on: EKVX NSCLC
[10] = tested on: HCC-2998 colon
[11] = tested on: HCT-15 colon
[12] = tested on: HL-60(TB) leukemia
[13] = tested on: HOP-62 NSCLC
[14] = tested on: HOP-92 NSCLC
[15] = tested on: HS 578T breast
[16] = tested on: HT29 colon
[17] = tested on: IGROV1 ovarian
[18] = tested on: K-562 leukemia
[19] = tested on: KM12 colon
[20] = tested on: LOX IMVI melanoma
[21] = tested on: M14 melanoma
[22] = tested on: MALME-3M melanoma
[23] = tested on: MCF7 breast
[24] = tested on: MDA-MB-231 breast
[25] = tested on: MDA-MB-435
[26] = tested on: MOLT-4 leukemia
[27] = tested on: NCI-H226 lung
[28] = tested on: NCI-H23 lung
[29] = tested on: NCI-H460 lung
[30] = tested on: NCI-H522 lung
[31] = tested on: NCI/ADR-RES ovarian
[32] = tested on: OVCAR-3 ovarian
[33] = tested on: OVCAR-4 ovarian
[34] = tested on: OVCAR-5 ovarian
[35] = tested on: PC-3 prostate
[36] = tested on: RPMI-8226 leukemia
[37] = tested on: SF-268 CNS
[38] = tested on: SF-295 CNS
[39] = tested on: SF-539 CNS
[40] = tested on: SK-MEL-2 melanoma
[41] = tested on: SK-MEL-28 melanoma
[42] = tested on: SK-MEL-5 melanoma
[43] = tested on: SK-OV-3 ovarian
[44] = tested on: SNB-75 CNS
[45] = tested on: SW-620 colon
[46] = tested on: T-47D breast
[47] = tested on: TK-10 renal
[48] = tested on: U251 CNS
[49] = tested on: UACC-62 melanoma
[50] = tested on: UO-31 renal

SMILES: COc1cc2c(cc1OC)-c1[nH]c3ccccc3c1CC(=O)N2
- TGI [1]: > 100 µM
- TGI [2]: > 100 µM
- TGI [3]: > 100 µM
- TGI [4]: > 100 µM
- TGI [5]: 50.4 µM
- TGI [6]: > 100 µM
- TGI [7]: 62.2 µM
- TGI [8]: > 100 µM
- TGI [9]: 67.3 µM
- TGI [10]: 89.2 µM
- TGI [11]: > 100 µM
- TGI [12]: > 100 µM
- TGI [13]: > 100 µM
- TGI [14]: > 100 µM
- TGI [15]: 4.67 µM
- TGI [16]: > 100 µM
- TGI [17]: > 100 µM
- TGI [18]: > 100 µM
- TGI [19]: 66.2 µM
- TGI [20]: > 100 µM
- TGI [21]: > 100 µM
- TGI [22]: 80.1 µM
- TGI [23]: > 100 µM
- TGI [24]: > 100 µM
- TGI [25]: 56.1 µM
- TGI [26]: > 100 µM
- TGI [27]: > 100 µM
- TGI [28]: 54.5 µM
- TGI [29]: > 100 µM
- TGI [30]: 46.4 µM
- TGI [31]: > 100 µM
- TGI [32]: > 100 µM
- TGI [33]: > 100 µM
- TGI [34]: > 100 µM
- TGI [35]: > 100 µM
- TGI [36]: > 100 µM
- TGI [37]: > 100 µM
- TGI [38]: > 100 µM
- TGI [39]: > 100 µM
- TGI [40]: 85.6 µM
- TGI [41]: 79.3 µM
- TGI [42]: 71.9 µM
- TGI [43]: > 100 µM
- TGI [44]: > 100 µM
- TGI [45]: > 100 µM
- TGI [46]: > 100 µM
- TGI [47]: > 100 µM
- TGI [48]: > 100 µM
- TGI [49]: 72 µM
- TGI [50]: > 100 µM
